In PubChem BioAssay AID360 (National Center for Advancing Translational Sciences (NCATS), 2006):
Screen size: about 48,000 compounds; about 550 (1.1%) were called active. About 4% were inconclusive and are not listed. Rule as the data show it: active = potency below about 15 µM; inconclusive = mostly about 16 µM to 33 µM; inactive = weaker than that. The list shows a part of the results.

Target: Lysosomal acid glucosylceramidase (Homo sapiens) (UniProt P04062)
Assay: Glucocerebrosidase;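 also: the screen sought inhibitors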
Conditions: purified enzyme, resorufin glucoside fluorescence (screen aimed at inhibitors), 20 min; series mostly up to 77 µM
Method in brief: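 Compounds titrated against 0.2 nM normal enzyme, 30 uM resorufin beta-D-glucopyranoside substrate, citrate/phosphate buffer with taurocholate and tween-20, pH 5.9. Reaction ran 20 min at room temperature; fluorescence (Ex 548/Em 600) gave AC50.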
Potency is read from the fitted curve at half-maximal effect.

Chain of UniProt P04062 (P04062 whole entry, looked up): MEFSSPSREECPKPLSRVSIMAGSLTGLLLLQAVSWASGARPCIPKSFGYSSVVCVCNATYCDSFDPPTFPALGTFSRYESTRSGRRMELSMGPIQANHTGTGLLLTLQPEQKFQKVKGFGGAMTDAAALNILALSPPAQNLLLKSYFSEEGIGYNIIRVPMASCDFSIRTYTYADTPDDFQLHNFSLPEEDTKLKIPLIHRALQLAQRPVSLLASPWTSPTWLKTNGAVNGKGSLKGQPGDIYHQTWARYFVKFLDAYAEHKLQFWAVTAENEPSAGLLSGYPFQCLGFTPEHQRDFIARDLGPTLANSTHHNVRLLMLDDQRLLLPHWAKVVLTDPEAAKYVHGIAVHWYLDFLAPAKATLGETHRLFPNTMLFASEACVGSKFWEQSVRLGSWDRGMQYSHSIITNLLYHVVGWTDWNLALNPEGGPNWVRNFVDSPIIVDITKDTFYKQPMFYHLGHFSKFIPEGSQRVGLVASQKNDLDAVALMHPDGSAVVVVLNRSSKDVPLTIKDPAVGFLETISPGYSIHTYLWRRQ

Potency, inactive:
O=C(C1CCN(S(=O)(=O)c2cccc3cccnc23)CC1)N1CCc2ccccc21 > 76.9 µM, O=C(NCc1cccs1)c1cccc(N2CCCC2=O)c1 > 76.9 µM, Cc1ccc(-n2c(Cc3cccn3C)nnc2SCC(N)=O)cc1 > 76.9 µM, O=C(CCCSc1nnc(-c2cccs2)n1CC1CCCO1)c1ccccc1 (configuration not stated) > 76.9 µM, Cc1ccc(-n2nc(C(=O)NCc3ccco3)c3c4ccccc4n(C)c3c2=O)cc1 > 76.9 µM, CC(O)c1cc2c(cc1NC(=O)c1cnn3c1NC(c1ccco1)CC3C(F)(F)F)OCO2 (configuration not stated) > 76.9 µM, CC1=C(C(=O)OC(C)C)C(c2cccs2)N2C(=O)CCSC2=N1 (configuration not stated) > 76.9 µM, OCCN1CCOCCN(CCO)CCN(CCO)CC1 > 76.9 µM, COc1cccc(-c2nnc(SCC(=O)Nc3cc(C)on3)o2)c1 > 76.9 µM, CC(C)(C)OC(=O)N1Cc2ccccc2C[C@H]1C(=O)O > 76.9 µM, CCc1ccccc1NC1=NCC(=O)N1Cc1ccc2c(c1)OCO2 > 76.9 µM, O=C(Nc1ccccc1C(=O)NCc1ccco1)NC1CCCCC1 > 76.9 µM, O=C(c1cc2nc(-c3ccco3)cc(C(F)(F)F)n2n1)N1CCCc2ccccc21 > 76.9 µM, COc1cc(Cl)c(C)cc1NC(=O)CSc1nnc(-c2ccccn2)n1Cc1ccco1 > 76.9 µM, CCc1nc2c3cnn(-c4cc(Cl)ccc4C)c3ncn2n1 > 76.9 µM, Cc1ccc(NC(=O)c2ccc3c(c2)N(CC(=O)N2CCCCC2)C(=O)C(C)(C)O3)cc1 > 76.9 µM, CCN(Cc1ccccc1)C(=O)Cn1c(=O)n(CC(=O)NCc2ccco2)c(=O)c2sccc21 > 76.9 µM, CCN(Cc1nc2ccccc2c(=O)[nH]1)Cc1cc(=O)oc2cc(C)c(C)cc12 > 76.9 µM, CCOc1ccc(NC(N)=O)cc1 > 76.9 µM, CC(C)C(OC(=O)CN1C(=O)COc2ccccc21)C(=O)NC1CCCC1 (configuration not stated) > 76.9 µM, COc1ccccc1-n1nc(C(=O)Nc2ccc3c(c2)OCO3)c2ccccc2c1=O > 76.9 µM, COC(=O)Nc1ccc2c(c1)N(C(=O)CCN1CCN3CCCC3C1)c1ccccc1CC2 (configuration not stated) > 76.9 µM, CC(=O)N1CCc2cc(S(=O)(=O)NCCCN3CCN(Cc4ccccc4)CC3)ccc21 > 76.9 µM, Cc1noc(/C=C/c2ccco2)c1S(=O)(=O)N1CCC(C(=O)NCc2ccco2)CC1 > 76.9 µM, CCOC(=O)CSC1=C(C#N)C(C)C2=C(CCCC2=O)N1 (configuration not stated) > 76.9 µM, COC(=O)c1ccc(CSCC(=O)Nc2cc(OC)cc(OC)c2)o1 > 76.9 µM, Cc1nnc2n(c1=O)C(CS(=O)(=O)c1ccccc1)CS2 (configuration not stated) > 76.9 µM, CCOc1ccc(-c2nc(=S)[nH][nH]2)cc1 > 76.9 µM, COc1ccc(OC)c(NC(=O)NCc2ccc(F)cc2)c1 > 76.9 µM, CCOc1cc(C(=O)OCC(=O)c2c(C)[nH]c3ccccc23)ccc1OCC(=O)N1CCOCC1 > 76.9 µM, COC(=O)CC[C@@H](C(=O)O)N1C(=O)c2ccccc2C1=O > 76.9 µM, O=C(O)CSc1c2c(nc3cc(C(=O)N4CCOCC4)ccc13)CCCC2 > 76.9 µM, CCC(C)NC(=O)CSc1nnc(-c2ccncc2)n1-c1ccc(OC)cc1 (configuration not stated) > 76.9 µM, CCCCS(=O)(=O)NC1=NCN(CCO)CN1 > 76.9 µM, CN(C1CCCCC1)S(=O)(=O)c1ccc(NC(=O)CCC(=O)O)cc1 > 76.9 µM, Cc1cc(C)nc(NS(=O)(=O)c2ccc(Br)cc2)n1 > 76.9 µM, CCCS(=O)(=O)N1CCC(C(=O)N2CCc3ccccc3C2)CC1 > 76.9 µM, CCOc1ccc(C2C(C(=O)O)c3ccccc3C(=O)N2CCN2CCOCC2)cc1 (configuration not stated) > 76.9 µM, COC(=O)C1=C(C)NC(=O)CC1c1ccc(F)c(Br)c1 (configuration not stated) > 76.9 µM, CC(C(=O)Nc1ccccc1-c1ccccc1)N1CCN(C(=O)c2ccco2)CC1 (configuration not stated) > 76.9 µM, COc1cc(S(=O)(=O)N2CCC(O)(c3cccc(C(F)(F)F)c3)CC2)ccc1-n1cnnn1 > 76.9 µM, CCS(=O)(=O)N1CCC(C(=O)NCCc2ccc(OC)c(OC)c2)CC1 > 76.9 µM, O=C(CN(C(=O)Cn1nnc(-c2cccs2)n1)c1cnc2ccccc2c1)NCC1CCCO1 (configuration not stated) > 76.9 µM, CC(C)(O)c1nnn(-c2ccccc2)c1C(F)(F)F > 76.9 µM, O=C(COc1cccc(-n2cnnn2)c1)N1CCOCC1 > 76.9 µM, O=c1oc2cc(Br)ccc2n1CSC1=NCCS1 > 76.9 µM, CCOC(=O)c1ccc(CNC(=O)c2n[nH]c(=O)c3ccccc23)o1 > 76.9 µM, COc1ccc(N(CC(=O)Nc2cccc(N(C)S(C)(=O)=O)c2)S(C)(=O)=O)cc1OC > 76.9 µM, COC(=O)[C@H](Cc1ccccc1)NC(=O)NCCc1ccc(S(N)(=O)=O)cc1 > 76.9 µM, Cc1cccc(OCc2nnc(SCC(=O)c3ccccc3)o2)c1 > 76.9 µM, CS(=O)(=O)N(C(=O)NC(=O)NC1CCS(=O)(=O)C1)C1CCCCC1 (configuration not stated) > 76.9 µM, CC(C)(C)C1CCc2onc(C(=O)Nc3cccnc3)c2C1 (configuration not stated) > 76.9 µM, COCCCN=CC1=C(O)CC(C)(C)CC1=O > 76.9 µM, Cc1cc2n(n1)C(c1ccccc1Cl)Nc1ccccc1-2 (configuration not stated) > 76.9 µM, O=C(CN1C(=O)C2C3C=CC(C3)C2C1=O)NC1CCCc2ccccc21 (configuration not stated) > 76.9 µM, O=C(NC1CCCCC1)C(c1ccc(F)cc1)N(Cc1ccco1)C(=O)Cn1nnc2ccccc21 (configuration not stated) > 76.9 µM, Cc1ccc(C(=O)C2=C(O)C(=O)N(CCCN3CCOCC3)C23C(=O)N(C)c2ccccc23)o1 (configuration not stated) > 76.9 µM, COc1ccc(C2=NOC(C(=O)NCc3ccco3)C2)cc1OC (configuration not stated) > 76.9 µM, CCOC(=O)CSc1nnc(CNc2nc(-c3ccccc3)cs2)n1C > 76.9 µM, COC(=O)c1cccc(N(C(=O)c2cnccn2)C(C(=O)NCc2ccccc2)c2ccco2)c1 (configuration not stated) > 76.9 µM, O=C(CNC(=O)c1ccco1)NCC(=O)OCc1cccc(C(=O)Oc2ccccc2)c1 > 76.9 µM, CC1CN(C(=O)c2ccccc2)OC(c2ccc3c(c2)OCO3)O1 (configuration not stated) > 76.9 µM, COc1cccc(C2CC(=O)NC3=C2C(=O)CCC3)c1 (configuration not stated) > 76.9 µM, Cn1c(=O)cc(SCC(=O)N2CCCC2)c2ccc(Cl)cc21 > 76.9 µM, Cc1nc2n(n1)CC(O)CS2 (configuration not stated) > 76.9 µM, CC(=O)c1cccc(NC(=O)c2ccc(N(C)S(C)(=O)=O)cc2)c1 > 76.9 µM, CC(c1ccccc1F)n1cc(C(=O)NCc2ccncc2)nn1 (configuration not stated) > 76.9 µM, Cc1sc2nc(SCC(=O)N(C)C)[nH]c(=O)c2c1C > 76.9 µM, COc1ccc(C2C(C#N)=C(N)OC(C(C)(C)C)=C2C#N)cc1OC (configuration not stated), Cc1cc(N2C(=O)CC(N3CCN(c4ccc(C(=O)c5cccs5)cc4)CC3)C2=O)no1 (configuration not stated) > 76.9 µM, CCN(CC)CCCN1C(=O)C(O)=C(C(=O)c2cc3ccccc3o2)C1c1ccccn1 (configuration not stated) > 76.9 µM, CCN1CCN(Cc2c(C)[nH]c3ccc(C(=O)OC)cc3c2=O)CC1 > 76.9 µM, C=CCn1c(SCc2csc(C)n2)nc2scc(-c3ccc(C)o3)c2c1=O > 76.9 µM, CCOC(=O)Cc1csc(NC(=O)CSc2nnc(C3CC3)n2C)n1 > 76.9 µM, CCOC(=O)N1CCN(Cc2nc3c(c(=O)n(C)c(=O)n3C)n2CCCc2ccccc2)CC1 > 76.9 µM, CC(=O)c1ccc(OC(=O)C2CC(=O)N(c3cccc(C)c3)C2)cc1 (configuration not stated) > 76.9 µM, CCN(c1ccccc1)S(=O)(=O)c1ccc(F)cc1C > 76.9 µM, CCCn1c(N2CCN(S(=O)(=O)Cc3ccccc3)CC2)nc2ccccc21 > 76.9 µM, NC(=O)c1c(NC(=O)CSc2nnc(-c3ccco3)n2-c2ccccc2)sc2c1CCC2 > 76.9 µM, COC(=O)CN(C#N)c1nc(SC)nc(N(C)C)n1 > 76.9 µM, CCOC(=O)N1CCN(CC(=O)n2c(C)c(C)c3ccccc32)CC1 > 76.9 µM, COC(=O)[C@H](CCSC)NC(=O)N1CCN(c2cccc(C(F)(F)F)c2)CC1 > 76.9 µM, N#Cc1cn(CC(=O)NCc2cccnc2)c2ccccc12 > 76.9 µM, O=C(O)c1cc(CN2CCOCC2)oc1-c1ccccc1 > 76.9 µM, O=C(Nc1ccc2c(c1)OCO2)C1CCCN1C(=O)Nc1cccc(F)c1 (configuration not stated) > 76.9 µM, CC(C)(C)NC(=O)CN(C(=O)CS(=O)CC(=O)Nc1ccc(F)cc1)c1ccccc1 (configuration not stated) > 76.9 µM, Cc1ccc(C(=O)OC2CCOC2=O)cc1NC(=O)c1ccco1 (configuration not stated) > 76.9 µM
